The whole screen tested about 310,000 compounds, of which about 2,200 (0.71%) showed an effect of 50% or more. Effects have a minus sign here. The list shows a part of the results.
Target: human ether-à-go-go-related gene (hERG) potassium channel (human, UniProt Q12809)
Assay: primary screen, population patch clamp on CHO cells stably expressing hERG

human ether-à-go-go-related gene (hERG) potassium channel, sequence (Q12809 whole entry, looked up): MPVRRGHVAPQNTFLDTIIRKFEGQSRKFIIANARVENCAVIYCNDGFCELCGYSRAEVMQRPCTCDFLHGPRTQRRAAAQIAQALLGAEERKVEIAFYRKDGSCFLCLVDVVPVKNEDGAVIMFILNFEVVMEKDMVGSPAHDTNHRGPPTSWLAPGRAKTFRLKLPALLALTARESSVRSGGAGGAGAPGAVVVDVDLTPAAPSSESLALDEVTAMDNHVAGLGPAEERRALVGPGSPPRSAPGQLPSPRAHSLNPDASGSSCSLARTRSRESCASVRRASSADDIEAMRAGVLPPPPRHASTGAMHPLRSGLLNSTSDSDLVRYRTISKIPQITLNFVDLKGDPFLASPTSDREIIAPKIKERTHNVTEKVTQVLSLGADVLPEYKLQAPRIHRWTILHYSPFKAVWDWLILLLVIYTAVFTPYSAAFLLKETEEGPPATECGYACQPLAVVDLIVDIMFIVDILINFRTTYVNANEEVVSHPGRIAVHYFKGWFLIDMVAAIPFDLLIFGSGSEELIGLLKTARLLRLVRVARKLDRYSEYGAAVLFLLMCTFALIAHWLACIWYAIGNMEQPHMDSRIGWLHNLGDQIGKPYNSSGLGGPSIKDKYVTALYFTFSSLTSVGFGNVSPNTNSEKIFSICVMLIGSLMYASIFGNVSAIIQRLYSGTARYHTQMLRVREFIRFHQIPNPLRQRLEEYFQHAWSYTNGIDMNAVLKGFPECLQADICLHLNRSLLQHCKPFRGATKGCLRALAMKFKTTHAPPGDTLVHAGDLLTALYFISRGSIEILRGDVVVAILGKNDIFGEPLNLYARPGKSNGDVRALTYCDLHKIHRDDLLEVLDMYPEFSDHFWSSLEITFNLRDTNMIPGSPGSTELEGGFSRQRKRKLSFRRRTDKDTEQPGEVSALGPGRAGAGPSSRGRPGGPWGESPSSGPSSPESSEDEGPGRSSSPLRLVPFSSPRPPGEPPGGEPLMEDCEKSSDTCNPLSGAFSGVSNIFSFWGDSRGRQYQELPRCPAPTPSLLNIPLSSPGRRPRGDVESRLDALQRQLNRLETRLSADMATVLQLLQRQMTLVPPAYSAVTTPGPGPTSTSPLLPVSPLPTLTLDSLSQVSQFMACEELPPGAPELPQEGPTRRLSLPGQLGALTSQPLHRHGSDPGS

Row | SMILES | hERG current change (%, negative = inhibition) at 1uM [%]
1 | COC(=O)Nc1nnc(Cc2ccc(OC)cc2)s1 | 16.1
2 | CCOc1cccc(-c2c(C(=O)N/N=C/c3cccnc3)nnn2-c2nonc2N)c1 | -15.3
3 | CCC(=O)Nc1ccc(C(=O)OCc2ccc(Cl)c(Cl)c2)cc1 | 2.38
4 | CC1CCCCN1C(=O)CN1C(=O)CSc2ccc(S(=O)(=O)N3CCOCC3)cc21 (stereo not shown) | 12.4
5 | COc1ccc(-c2csc(Nc3ccccn3)n2)cc1OC | 13.6
6 | COc1cc(C(=O)OCC(=O)N(C)c2ccccc2)cc(OC)c1OC | 7.74
7 | CN(C)S(=O)(=O)c1ccc(C(=O)NCC(=O)Nc2ccc(F)c(F)c2)cc1 | 6.33
8 | COCc1nnc(NC(=O)c2ccc(S(=O)(=O)N3CCCC3)cc2)o1 | 8.06
9 | COc1ccc(Br)cc1CNC(=O)C1CCN(S(=O)(=O)N2CCCCC2)CC1 | 11.7
10 | Nc1ccc(S(=O)(=O)Nc2nccc(/C=C/c3ccc(Cl)cc3Cl)n2)cc1 | 11.1
11 | CC1=C(C(N)=O)C(c2ccc3c(c2)OCO3)n2nc(-c3cccc(C)c3)nc2N1 (stereo not shown) | -9.71
12 | CCCS(=O)(=O)c1snnc1C | 9.83
13 | Cc1ccccc1N(CC(=O)N1CCCC1)S(=O)(=O)c1ccc(Cl)cc1 | 0.152
14 | CCOC(=O)c1ccc(Oc2nc(OC)nc(N(C)C)n2)cc1 | 10.8
15 | Cc1cc(C)c2c(=O)c(/C=C3\NC(=S)NC3=O)coc2c1 | 14.4
16 | CCOC(=O)/C=C1\SCC(=O)N1CC(=O)NCCc1ccc(F)cc1 | 10.8
17 | COc1ccc2[nH]cc(CCNC(=O)Cc3c(F)cccc3Cl)c2c1 | 9.3
18 | COc1ccc(C(=O)Nn2cnnc2)cc1 | 4.91
19 | COc1cc(/C=N/NC(=O)c2cc(O)cc(O)c2)ccc1OC(=O)c1ccccc1 | 17.4
20 | CCOC(=O)c1ccc(-n2ccnc2)c(NC(=O)c2cccc(Br)c2)c1 | -7.03
21 | CCC(=O)N1CCN(c2ccc(NC(=O)c3ccc(Br)o3)cc2)CC1 | -1.62
22 | O=c1c(-c2ccc(Oc3ccccc3)cc2)[n+]([O-])c2ccccc2n1OCc1ccccn1 | -16.6
23 | Cc1ccc(S(=O)(=O)CCNC(=O)Cc2ccc(Cl)cc2)cc1 | 6.08

Row | SMILES | hERG current change (%, negative = inhibition) at 1uM [%]
24 | S=C(NCCCN1CCOCC1)N1CCOCC1 | 12.8
25 | COc1ccc(OC)c(C(=O)c2ccccc2)c1 | 13.9
26 | Cc1nc2c3cc(F)ccc3n(Cc3ccccc3F)c2s1 | 13
27 | COc1ccc(OCc2cc(C(=O)NC3Cc4ccccc4C3)no2)c(Cl)c1 | 8.09
28 | CCCCSc1cc(=O)[nH]c(N)n1 | 14.8
29 | CCN(CC(=O)Nc1ccc(NC(C)=O)cc1)C(=O)CSCC(=O)Nc1ccc(C)cc1 | 9.07
30 | CCOC(=O)Cc1csc(NC(=O)/C=C/c2ccc(Cl)cc2)n1 | 1.25
31 | O=C(Nc1cccn(Cc2c(Cl)cccc2Cl)c1=O)c1ccc(Cl)cc1Cl | 8.72
32 | CCNc1ccccc(C(=O)/C=C/c2ccc3c(c2)OCO3)c1=O | 17.8
33 | CC(C)Cc1nnc(NC(=O)CCC(=O)N2CCN(CCOC(c3ccccc3)c3ccccc3)CC2)s1 | 6.29
34 | CCc1ccc(C(=O)COC(=O)CNC(=O)Cc2ccccc2)cc1 | 8.13
35 | CC(C)c1ccc(S(=O)(=O)NC2CCS(=O)(=O)C2)cc1 (stereo not shown) | 5.19
36 | CCSc1nc2sccc2c(=O)n1-c1ccccc1 | 14.6
37 | CCCN1C(=O)/C(=C/c2ccncc2)SC1=S | 10.4
38 | COc1ccc(CCC(=O)c2ccc(OC)cc2)cc1 | 8.67
39 | CCC(=O)N1CCN(c2ccc(NC(=O)COc3ccc(C)cc3C)cc2)CC1 | 12.5
40 | COc1cc(OC)cc(C(=O)N2CCN(Cc3ccccc3Br)CC2)c1 | 9.25
41 | CC(C)Oc1ccc(N2CC(C(=O)Nc3ccccc3C(=O)NC3CC3)CC2=O)cc1 (stereo not shown) | -37.4
42 | CCn1c(COc2ccccc2)nnc1SCC(=O)CC(=O)Nc1ccccc1OC | 6.86
43 | COc1ccc(S(=O)(=O)N2CCC(C(=O)Nc3c(F)cccc3F)CC2)cc1 | 17.6
44 | CC1(OC(=O)c2cccs2)C(=O)C=C2C=C(c3ccsc3)OC=C2C1=O (stereo not shown) | 5.5
45 | O=C1Nc2ccc([N+](=O)[O-])cc2C1(O)N1CCCCC1 (stereo not shown) | 2.11
46 | COc1ccccc1OCCOCCOc1ccccc1Cl | 14.8

Row | SMILES | hERG current change (%, negative = inhibition) at 1uM [%]
47 | O=C(O)c1ccc(/C=N/n2cc(-c3ccccc3)[nH]c2=S)cc1 | 9.78
48 | Cn1c(SCC(=O)NC(=O)NCc2ccco2)nnc1C(F)(F)F | 2.54
49 | Oc1ccc(N2CCN(Cc3nc4ccccc4[nH]3)CC2)cc1 | 9.24
50 | Cc1ccc2oc(=O)c3cc(C(=O)NCCCN4CC(C)CC(C)C4)sc3c2c1 (stereo not shown) | -13
51 | COc1cccc(O)c1CN1CCC(Oc2ccc(C(=O)NCc3ccccn3)cc2)CC1 | 3.91
52 | O=C(N/N=C/C=C\c1ccco1)c1cccnc1 | 11.4
53 | Clc1ccccc1C1=CC(c2ccco2)n2ncnc2N1 (stereo not shown) | 0.281
54 | CCOc1ccc(/C=C/C(=O)N(C)CC(=O)Nc2cccc(F)c2)cc1OCC | 15.5
55 | CSc1ccccc1NC(=O)CN(C)CC(=O)NCc1ccccc1 | 2.82
56 | CC1CCN(C(=O)COC(=O)c2cc(=O)[nH]c3ccccc23)CC1 | 11.2
57 | CCOc1ccccc1C(=O)N(C)CC(=O)Nc1ccc(OC)cc1 | 6.82
58 | O=C(c1ccc2c(=O)n(C3CCCC3)c(=S)[nH]c2c1)N1CCc2ccccc21 | 10.8
59 | O=C(CSCc1ccc(Br)cc1)Nc1ccccc1C(=O)N1CCOCC1 | 10.7
60 | COCCSc1ccccc1C(=O)NCc1ccco1 | -0.155
61 | Cc1cc(C)n2cc(COc3ccc4ccccc4c3)nc2n1 | -4.92
62 | Cc1occc1-c1nnc(SCC(=O)N2CCOCC2)n1CCc1ccccc1 | 0.77
63 | COc1ccc(/C=C/C(=O)NCc2nc3ccccc3[nH]2)cc1OC | 6.86
64 | COCCN1CCN(C(=O)c2ccc3nc(Cc4ccccc4F)oc3c2)CC1 | 2
65 | Cc1ccc(N(CCC#N)C(=O)CSc2ccc3c(c2)OCCO3)cc1 | 2.75
66 | COc1ccccc1N1C(=O)CC(Sc2n[nH]c(-c3cccc(C)c3)n2)C1=O (stereo not shown) | 8.37
67 | O=C(CN(Cc1ccccc1F)S(=O)(=O)c1ccc(Cl)cc1)NCCC1=CCCCC1 | 13
68 | CCC(C)c1ccc(NC(=S)NC2CCN(Cc3ccccc3)CC2)cc1 (stereo not shown) | 8.05
69 | O=C(Nc1ccc(C(F)(F)F)cc1)c1ccccc1 | 7.52

Row | SMILES | hERG current change (%, negative = inhibition) at 1uM [%]
70 | COc1ccc(CCNC(=O)CN2CCN(Cc3ccc(F)cc3)C2=O)cc1OC | 13.9
71 | Cc1ccc(C(=O)CC2(O)C(=O)N(C)c3ccccc32)s1 (stereo not shown) | 11.3
72 | COCCCNC(=O)CSc1nc2ccccc2c(=O)n1CCCN1CCCCC1 | 15.3
73 | CSCC(=O)N1CCCC(CNC(=O)c2ccccc2Cl)C1 (stereo not shown) | 12.5
74 | Clc1ccccc1CSc1nnc(-c2ccco2)c(-c2ccco2)n1 | 6.19
75 | O=C(Nc1cccc(S(=O)(=O)N2CCOCC2)c1)c1ccc(N2CCCC2=O)cc1 | 6.91
76 | O=C(Nc1ccncc1)c1ccc(Cl)cc1 | 9.64
77 | NC(=O)CCC(NC(=S)Nc1ccccc1)C(=O)O (stereo not shown) | 11.5
78 | COc1ccc(CCNC(=O)CSCc2ccc(F)cc2)cc1OC | 5.73
79 | Cc1ccc2nc(-c3ccc(NC(=O)CN4CCN(C(=O)c5ccco5)CC4)cc3)sc2c1 | 13.1
80 | O=C(O)C1CCCN1C(=O)Nc1ccc(F)cc1 (stereo not shown) | 0.144
81 | Cn1ccnc1Sc1cc(Cl)ccc1[N+](=O)[O-] | 15.8
82 | Cc1ccccc1C(=O)NCC(=O)OC(C)C(=O)Nc1cccc(S(=O)(=O)N2CCOCC2)c1 (stereo not shown) | 14.4
83 | CC(=O)NS(=O)(=O)c1ccc(NC(=O)CSc2ccccc2)cc1 | 10.5
84 | O=C1C(=O)N(Cc2cccnc2)C(c2cccc(Br)c2)/C1=C(/O)c1ccc2c(c1)OCO2 (stereo not shown) | 4.82
85 | CCNc1nc2c(c(=O)n(C)c(=O)n2C)n1Cc1ccc(Cl)cc1 | 3.75
86 | COc1ccc(C2(C(=O)O)CCCC2)cc1 | 8.89
87 | COc1cc2oc3ccc(C#Cc4ccccn4)cc3c(=O)c2cc1OC | 11.8
88 | O=C(COc1ccc(F)cc1Br)N1CCc2ccccc21 | 12.6
89 | O=C(/C=C/c1cccs1)N1CCN(c2ccccc2)CC1 | 12.4
90 | CCCCC(=O)Nc1c2c(nn1-c1cccc(C)c1C)CS(=O)(=O)C2 | 7.74
91 | CC(=O)C1=C(C)N(Cc2ccccc2)C(=O)N[C@H]1CCc1ccccc1 | 7.2

From article PMC4336329 (PLoS ONE, 2015)
